Here are results for 102 compounds from PMC6919601, “Identification of Plasmodium dipeptidyl aminopeptidase allosteric inhibitors by high throughput screening” (PLoS ONE, 2019).

The structures appear in SMILES notation. The campaign covered roughly 110,000 compounds. About 230 (0.21%) showed an effect of 50% or more. Some of the results follow.
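Note: 30 min substrate incubation versus DMSO and 10 µM JCP410 controls.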

Chain of DPAP1 (Q8IIJ9 whole entry, looked up): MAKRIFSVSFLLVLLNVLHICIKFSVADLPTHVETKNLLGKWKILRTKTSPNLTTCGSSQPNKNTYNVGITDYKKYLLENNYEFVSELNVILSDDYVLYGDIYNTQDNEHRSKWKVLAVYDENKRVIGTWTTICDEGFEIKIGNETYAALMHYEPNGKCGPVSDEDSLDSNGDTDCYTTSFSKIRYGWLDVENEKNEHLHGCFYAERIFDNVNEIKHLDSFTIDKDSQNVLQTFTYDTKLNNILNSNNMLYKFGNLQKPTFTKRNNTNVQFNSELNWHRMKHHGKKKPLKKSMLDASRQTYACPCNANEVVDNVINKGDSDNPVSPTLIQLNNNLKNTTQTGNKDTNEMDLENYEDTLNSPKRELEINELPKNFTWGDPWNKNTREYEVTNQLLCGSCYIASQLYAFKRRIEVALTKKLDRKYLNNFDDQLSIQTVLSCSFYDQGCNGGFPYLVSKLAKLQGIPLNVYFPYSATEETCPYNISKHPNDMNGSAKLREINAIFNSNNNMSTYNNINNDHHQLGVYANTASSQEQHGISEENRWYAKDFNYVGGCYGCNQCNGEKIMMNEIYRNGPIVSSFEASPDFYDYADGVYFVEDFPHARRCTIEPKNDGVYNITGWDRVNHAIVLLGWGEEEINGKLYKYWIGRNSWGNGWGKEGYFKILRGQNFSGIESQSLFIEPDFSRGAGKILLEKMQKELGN

The test concerns the target DPAP1 (Plasmodium falciparum, UniProt Q8IIJ9). The experiment in a line: primary screen, percent inhibition; read by cleavage of a fluorogenic dipeptide substrate; higher = more effect of the substance. Set-up: species or system P. falciparum D10 trophozoite lysates; single well.
Take `COC(=O)C1=C(C)N(CCc2ccc(OC)cc2)C(=O)/C1=C\c1cc(C)n(-c2ccc(F)cc2)c1C`: the “% Inhibition @ 10 uM” value is on record as 1.63%.

Turning to `OC1=C2C(=Nc3ncnn3C2c2ccc(F)c(Br)c2)CCC1` (stereo not drawn), the “% Inhibition @ 10 uM” value is -1.62%. Turning to `O=C1c2cccnc2C(=O)N1Cc1ccco1`, the “% Inhibition @ 10 uM” value was 0.66%. For `Cc1cnc(NC(=O)c2cn(-c3ccccc3)nc2-c2ccccc2)s1`, the “% Inhibition @ 10 uM” value was -2.84%.

As for `CN(C)CCCNC(=O)/C(=C\c1ccco1)NC(=O)c1ccccc1`, the “% Inhibition @ 10 uM” value came out at 2.59%. On to `O=C(O)CCC(=O)N1N=C(c2cccs2)CC1c1ccccc1` (stereo not drawn), for which the “% Inhibition @ 10 uM” value is given as -10.8%.

With `O=C1NCCCC[C@@H]1Nc1ncccn1`, the “% Inhibition @ 10 uM” value was -2.97%.

With `COc1ccc(N2C(N)=C(C#N)C(c3ccc(OC)c(OC)c3)C3=C2CCCC3=O)cc1` (stereo not drawn), the “% Inhibition @ 10 uM” value is 5.9%. As for `O=C(C1CC(c2ccccc2F)=NO1)N1CCOCC1` (stereo not drawn), the “% Inhibition @ 10 uM” value is given as 2.85%. For `CN(CC(=O)NCCc1ccc(Cl)cc1)S(=O)(=O)c1ccc2[nH]c(-c3ccccc3)nc2c1`, the “% Inhibition @ 10 uM” value was -2.57%. Regarding `CCOc1ccc(/C=C/c2nc(C#N)c(NCc3ccc(C)cc3)o2)cc1`, the “% Inhibition @ 10 uM” value is given as -6.29%. Turning to `Cc1ccc(C)c(-c2csc(Nc3cccc(C(F)(F)F)c3)n2)c1`, the “% Inhibition @ 10 uM” value was -4.04%. Turning to `O=C(Nc1ccccc1C#Cc1ccccc1)c1cccnc1`, the “% Inhibition @ 10 uM” value is listed as -1.96%. Then `COc1ccc(/C=C/c2ccccn2)cc1`, with 4.51%.

`COc1cc(CN(CCN(C)C)Cc2ccccc2)cc(OC)c1`: the “% Inhibition @ 10 uM” value is recorded as 1.08%.

Regarding `COc1ccc(-c2[nH]nc3c2C(c2cccc(O)c2)N(C)C3=O)cc1` (stereo not drawn), the “% Inhibition @ 10 uM” value is -1.29%. Consider `Cc1ccc(C)c(OCC(=O)Nc2ccc(S(=O)(=O)Nc3nc(C)cc(C)n3)cc2)c1`, for which the “% Inhibition @ 10 uM” value is given as -0.891%. Then `COC(=O)c1c(N)n(C(C)c2ccccc2)c2nc3ccccc3nc12` (stereo not drawn), with -7.23%; and `CCOC(=O)c1cnc2ccc3ccccc3c2c1O`, with -2.48%; and `COc1cccc2c3c(c[n+](C)c12)sc1ccc(F)cc13`, with 5.05%. Then `CCCSc1nnc(NC(=O)C(=O)c2cc(C)n(CCOC)c2C)s1`, with -2.84%; and `C=CCO/C(O)=C1/C(C)=Nc2nc3ccccc3n2C1c1ccc(OC)cc1OC` (stereo not drawn), with 4.86%; and `CCC(Oc1ccccc1)C(=O)Nc1ccc(C)cc1C` (stereo not drawn), with 2.03%. As to `O=C(Nc1ccc2oc(-c3cccc(F)c3)nc2c1)c1cccc(F)c1`, the “% Inhibition @ 10 uM” value was 10.6%.

With `CN(C)/C(Cc1ccccc1)=N\c1ccccc1C#N`, the “% Inhibition @ 10 uM” value was -0.13%. `O=c1c(-c2ccccc2)c(C(F)(F)F)oc2c(CN3CCCC3)c(O)ccc12`: the “% Inhibition @ 10 uM” value is -0.473%.

With `O=C(/C=C/c1ccccc1Cl)NC1CCCCC1`, the “% Inhibition @ 10 uM” value is given as -3.94%. As to `C=C(C)COc1ccc2cc(-c3nc4ccccc4s3)c(=O)oc2c1`, the “% Inhibition @ 10 uM” value was 6.22%. With `CCCn1nnnc1NCc1ccc2c(c1)OCO2` the figure was -12.7%. For the compound `CCN1CC=C2C(C#N)=C(N)C(C#N)(C#N)C(c3ccsc3)C2C1` (stereo not drawn), the “% Inhibition @ 10 uM” value came to 3.25%. As for `COc1ccc(CN2CCN(Cc3csc4c3CCCC4)CC2)c(OC)c1OC`, the “% Inhibition @ 10 uM” value is on record as 0.401%. On to `COc1ccccc1C(=O)CC1(O)C(=O)Nc2ccc(C)cc21` (stereo not drawn), for which the “% Inhibition @ 10 uM” value was determined as 2.44%. Consider `Cc1ccc(NC2CC(O)C(CO)O2)cc1C` (stereo not drawn), for which the “% Inhibition @ 10 uM” value is reported as -3.77%.

On to `CN(C)CCN(C(=O)Cc1ccccc1)c1nc2c(F)cc(F)cc2s1`, for which the “% Inhibition @ 10 uM” value is -0.546%.

For the compound `O=C(NC1CCCCC1C(=O)O)OCC1c2ccccc2-c2ccccc21` (stereo not drawn), the “% Inhibition @ 10 uM” value is reported as 5.77%. With `O=C(NCCc1c[nH]c2ccccc12)/C(=C\c1ccco1)NC(=O)c1ccco1` the figure was -3.06%. With `COc1ccc(CC2(NC(=O)c3ccc(Cl)cc3)N=C3C=C(C)C=CN3C2=O)cc1` (stereo not drawn), the “% Inhibition @ 10 uM” value was -3.85%. Turning to `CCC1CCCCN1CCCNC(=O)C1CC(=O)N(C2CCCC2)C1` (stereo not drawn), the “% Inhibition @ 10 uM” value is recorded as 3.79%.

With `Cc1cc2ccccc2c(=O)n1CC(=O)NCc1ccco1`, the “% Inhibition @ 10 uM” value was determined as 2.73%. As for `CCCCOc1ccc(S(=O)(=O)Nc2cccc(-c3cn4ccsc4n3)c2)cc1`, the “% Inhibition @ 10 uM” value stood at 3.05%.

`CCOCCCNC(=O)c1ccc(CSc2nc3ccncc3n2Cc2cccc(F)c2)cc1`: the “% Inhibition @ 10 uM” value was found to be 8.62%. With `C=CCn1c2ccccc2c2nnc(SCC(=O)Nc3nncs3)nc21`, the “% Inhibition @ 10 uM” value is on record as -3.14%. Turning to `COc1cccc(-c2cn3c(n2)sc2cc(C(=O)N4CCN(c5ccccn5)CC4)ccc23)c1`, the “% Inhibition @ 10 uM” value is listed as 25%.

With `COc1cccc(C2C3=C(O)CCCC3=NC(C)=C2C(=O)Nc2ccc(Br)cn2)c1OC` (stereo not drawn), the “% Inhibition @ 10 uM” value was -0.661%. Consider `N#Cc1c(C(F)(F)F)cc(-c2cccs2)nc1SCC(=O)NC1CC1`, for which the “% Inhibition @ 10 uM” value was 1.76%. As for `CCOc1ccc(NC(=O)c2ccccc2OCC)cc1`, the “% Inhibition @ 10 uM” value was -1.07%. Then `COc1cccc(SC[C@H]2CCCC[C@H]2C(=O)NCC#N)c1`, with 0.173%; and `Cc1ccc(-n2ncnc2-c2cccs2)cc1Cl`, with -6.22%; and `C/C=C/Cn1c(SCc2cccc(C)c2)nc2c1c(=O)[nH]c(=O)n2C`, with -2.68%.

In the case of `Cc1nn(-c2ccccc2)c2c1C(O)CC(C)(C)C2` (stereo not drawn), the “% Inhibition @ 10 uM” value stood at 8.96%. With `CC(C)CC(NC1=C(Cl)C(=O)c2ccccc2C1=O)C(=O)O` (stereo not drawn), the “% Inhibition @ 10 uM” value was found to be 1.31%. Consider `Cc1cc(C)cc(OCCCCCCc2c(C)n[nH]c2C)c1`, for which the “% Inhibition @ 10 uM” value was -4.3%.

Regarding `O=P(O)(/C=C/c1ccccc1)/C=C/c1ccccc1`, the “% Inhibition @ 10 uM” value is listed as -0.0369%. `CC(C)COP(=O)(CN1CCOCC1)OCC(C)C`: the “% Inhibition @ 10 uM” value is reported as -4.61%. `Cc1ccc(CNC(=O)CSc2nc3c(c(=O)n2Cc2ccccc2)SCC3)cc1`: the “% Inhibition @ 10 uM” value is given as -2.26%. `COc1cccc(CNC2CN3CCC2CC3)c1OC` (stereo not drawn): the “% Inhibition @ 10 uM” value is on record as -3.33%. For the compound `CC(C)=CC(=O)CC(C)(O)c1ccccc1` (stereo not drawn), the “% Inhibition @ 10 uM” value is given as 1.13%. Take `COC(=O)c1sc2nc(-c3ccccc3)nc(NC(=O)Cc3ccccc3)c2c1C`: the “% Inhibition @ 10 uM” value is reported as 1.03%. `O=[N+]([O-])c1ccccc1S(=O)(=O)NCc1ccccc1`: the “% Inhibition @ 10 uM” value was 3.31%. For the compound `Cc1ccc(NC(=O)c2ccc(Cl)cc2)cc1O`, the “% Inhibition @ 10 uM” value is -2.65%. As to `CCc1nc2ccc(C(=O)N3CCN(C)CC3)cc2nc1CC`, the “% Inhibition @ 10 uM” value was determined as 0.944%. With `CCOc1ccccc1NC(=O)c1ccc2c(c1)C(=O)N(CC1CCCO1)C2=O` (stereo not drawn), the “% Inhibition @ 10 uM” value is recorded as -0.553%. Regarding `COc1ccc(CC2NCCc3cc(OC)c(OC)cc32)cc1OC` (stereo not drawn), the “% Inhibition @ 10 uM” value is recorded as 1.64%. Then `CCn1c2ccccc2c2cc(C3C(C#N)=C(N)OC4=C3C(=O)CC(C)(C)C4)ccc21` (stereo not drawn), with 1.82%. As for `COC(=O)c1ccccc1-c1ccc(/C=C2/C(=N)N3N=C(C(F)(F)F)SC3=NC2=O)o1`, the “% Inhibition @ 10 uM” value stood at 4.01%. In the case of `COc1ccc(OC)c(NS(=O)(=O)c2ccc(NC(C)=O)cc2)c1`, the “% Inhibition @ 10 uM” value is -6.67%.

In the case of `CCCC(=O)N1CCN(c2ccc(NC(=O)c3ccc(OC)cc3)cc2Cl)CC1`, the “% Inhibition @ 10 uM” value is recorded as -2.74%.

On to `COc1ccc2c(CNCCC3=CCCCC3)c(C(=O)O)n(Cc3ccccc3F)c2c1`, for which the “% Inhibition @ 10 uM” value is given as -0.232%. Consider `C=CCc1c(C)nc(SC)nc1O`, for which the “% Inhibition @ 10 uM” value is reported as -1.77%. Take `O=C1c2ccc(Oc3cccc([N+](=O)[O-])c3)cc2C(=O)N1c1cnc(O)nc1O`: the “% Inhibition @ 10 uM” value amounted to 3.06%. Take `CCOC(=O)c1cnn(-c2nnnn2-c2ccccc2)c1-c1cc(F)c(F)c(F)c1F`: the “% Inhibition @ 10 uM” value is reported as -1.24%.

Turning to `N#C/C(=C\c1ccc(Br)cc1)c1nc(C2CC2)cs1`, the “% Inhibition @ 10 uM” value was found to be 3.74%. As to `CCOc1cccc2sc(N(CCN(C)C)C(=O)c3nc4ccccc4s3)nc12`, the “% Inhibition @ 10 uM” value is recorded as -3.88%. With `Cc1nnc(NC(=O)c2ccc(-c3ccccc3)cc2)s1` the figure was 1.12%; with `N#CCNC(=O)[C@H](CCC(=O)Nc1ccc(Cl)cc1)NC(=O)c1ccc(Br)cc1`, -3.25%; with `NC1=C(c2nc3ccccc3[nH]2)C(=O)CN1C1CCCCC1`, -4.82%. Then `Cc1cccc(-c2noc(CN(C(=O)/C=C/c3ccccc3)C(C)C)n2)c1`, with -5.26%; and `CCC(Oc1ccccc1)C(=O)O/N=C(\N)c1cccnc1` (stereo not drawn), with -5.11%; and `O=C(/C=C/c1cccc([N+](=O)[O-])c1)Nc1ccc(Br)cc1`, with 1.35%.

As for `Cc1ccc(NCN2C(=O)C(=O)c3ccccc32)nc1`, the “% Inhibition @ 10 uM” value is given as 6.86%. `CC(Oc1cccc(Cl)c1)C(=O)Nc1ccc2c(c1)OCCO2` (stereo not drawn): the “% Inhibition @ 10 uM” value was 2.36%. Regarding `Cc1onc(-c2ccccc2Cl)c1C(=O)Nc1ccccc1C(=O)O`, the “% Inhibition @ 10 uM” value stood at 3.93%. Turning to `C/C(=C\C(=O)N1CCc2ccccc21)C(=O)O`, the “% Inhibition @ 10 uM” value turned out to be 0.00178%.

On to `N#Cc1cn(Cc2ccccc2)c2ccccc12`, for which the “% Inhibition @ 10 uM” value was determined as 3.96%. `O=C(O)c1ccc(-c2nnn(Cc3ccc(F)cc3)n2)cc1`: the “% Inhibition @ 10 uM” value is reported as -3.53%. `O=C1CSC2(C(=O)Nc3ccccc32)N1c1ccc(F)cc1` (stereo not drawn): the “% Inhibition @ 10 uM” value was -2.8%.

In the case of `CC(C)(C)NS(=O)(=O)c1ccc(NC(=O)C2CC2)cc1`, the “% Inhibition @ 10 uM” value is on record as -4.14%.

As to `CCOc1ccc(-n2cc(-c3ccccc3)c3c(N4CCCC4)ncnc32)cc1`, the “% Inhibition @ 10 uM” value was 3.99%.

Take `COc1cccc(Nc2nc(-c3ccc(OC)c(F)c3)cs2)c1`: the “% Inhibition @ 10 uM” value is 0.98%. As for `CCOC(=O)C1CCCCN1Cc1ccc(O)cc1` (stereo not drawn), the “% Inhibition @ 10 uM” value was -1.93%.

For `O=c1oc2ccccc2c2c1ncn2-c1ccccc1`, the “% Inhibition @ 10 uM” value came out at 1.71%. With `Cc1sc2c3ccccc3ccc2[n+]1CCC(=O)O` the figure was 6.51%. `COc1ccc(OC)c(CNCc2cccn2-c2nnc(N3CCC(C)CC3)s2)c1`: the “% Inhibition @ 10 uM” value was 2.6%. Then `CCNC(=O)CN(c1cccc(Cl)c1C)S(=O)(=O)c1ccccc1`, with -5%. Turning to `CC(=O)c1cccc(N2C(=O)C3CCC(C)CC3C2=O)c1` (stereo not drawn), the “% Inhibition @ 10 uM” value is recorded as -0.0938%. With `Cc1ccc(OCCSc2nc3c(N)ncnc3[nH]2)c(C(C)C)c1`, the “% Inhibition @ 10 uM” value came out at 3.79%. For the compound `CC(C)(C)c1ccc(S(=O)(=O)N2CCC(N3CCCCC3)CC2)cc1`, the “% Inhibition @ 10 uM” value came to 7.17%. For `Cc1ccc(S(=O)(=O)N2CCCN(C(=O)C(F)(F)F)C2c2ccccc2)cc1` (stereo not drawn), the “% Inhibition @ 10 uM” value is -1.52%. With `COc1ccc2c(CNCCc3ccccc3)c(C(=O)O)n(Cc3ccccc3)c2c1`, the “% Inhibition @ 10 uM” value is recorded as 2.33%. Then `Cc1ccc(Cl)cc1NC(=O)c1cccc2ccccc12`, with 3.03%; and `Cc1ccc(S(=O)(=O)CCc2nc3ccccc3[nH]2)cc1`, with -2.39%. In the case of `CCN(CC)S(=O)(=O)N1C=Cc2ccccc2C1c1c[nH]c2ccccc12` (stereo not drawn), the “% Inhibition @ 10 uM” value was -1.15%.
